This note sets out measurements from PubChem BioAssay AID1745853 (National Center for Advancing Translational Sciences (NCATS), 2022).

What all share (assay): Primary Screen for Target Class Profiling of Small Molecule Inhibitors of Methyltransferases
The target in test [1] is Glycine N-methyltransferase (Homo sapiens) (UniProt Q14749). The settings on record: purified enzyme, MTase-Glo SAH luminescence; measured here: GNMT inhibition; at 40 µM; stronger effect = lower value. An outline of the steps: (§1)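 Each enzyme was assayed with SAM and its substrate. SAH formation detected by MTase-Glo luminescence; single-point 40 uM screen[…].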
The target in test [2] is Guanidinoacetate N-methyltransferase (Homo sapiens) (UniProt Q14353). The settings on record: purified enzyme, MTase-Glo SAH luminescence; measured here: GAMT inhibition; at 40 µM; stronger effect = lower value. Summed up:
as §1

For test [3], the target named is Histamine N-methyltransferase (Homo sapiens) (UniProt P50135). The following applies: purified enzyme, MTase-Glo SAH luminescence; measured here: HNMT inhibition; at 40 µM; stronger effect = lower value. An outline of the steps:
as §1

Test [4] has as its target Nicotinamide N-methyltransferase (Homo sapiens) (UniProt P40261). The settings on record: purified enzyme, MTase-Glo SAH luminescence; measured here: NNMT inhibition; at 40 µM; stronger effect = lower value. An outline of the steps:
as §1

The target of test [5] is Phenylethanolamine N-methyltransferase (Homo sapiens) (UniProt P11086). The settings on record: purified enzyme, MTase-Glo SAH luminescence; measured here: PNMT inhibition; at 40 µM; stronger effect = lower value. An outline of the steps: as §1

The list shows a part of the results. The main result of the screen is listed elsewhere. These columns were measured beside it and carry no call.
% is set by controls: 0 for no effect and ±100 for the full control effect.

Take `Cc1cccc(CCNC(=O)c2cc3n(n2)CC(C)(C(=O)NCc2ccc(F)cc2)N(C)C3=O)c1` (stereo not given): the activity change, negative = inhibition in test [1] is 6.23%; in test [2], 0%; in test [3] it was -6.14%; in test [4] it was 6.69%; in test [5], 6.16%.

For the compound `Cc1cc2[nH]c(=O)[nH]c2cc1S(=O)(=O)N1CCN(Cc2ccccc2)CC1`, the activity change, negative = inhibition in test [1] was 13%; in test [2], 2.98%; in test [3], 11.7%; in test [4], -1.25%; in test [5] it was 5.73%.

For the compound `O=C(CCc1nnc2ccc(NCc3ccccc3Cl)nn12)NCC1CCCO1` (stereo not given), the activity change, negative = inhibition is -3.26% in test [1]; 1.36% in test [2]; 3.05% in test [3]; -0.329% in test [4]; 3.55% in test [5].

On to `COc1ccccc1CNC(=O)C1(C)Cn2nc(-c3ccccc3)cc2C(=O)N1c1ccc(C)c(Cl)c1` (stereo not given), for which the activity change, negative = inhibition in test [1] is 0.041%; in test [2], 4.78%; in test [3], 0.87%; in test [4] it was 6.16%; in test [5], -1.36%.

As to `COCCc1noc(C2Cc3ccccc3N2C(=O)Cc2ccc(OC)c(OC)c2)n1` (stereo not given), the activity change, negative = inhibition in test [1] was -4.73%; in test [2] it was -1.98%; in test [3] it was -1.04%; in test [4], -9.37%; in test [5], 3.57%.

`CCCCCC(=O)N(c1ccc(OC)cc1)S(=O)(=O)c1ccc2c(c1)n(C)c(=O)n2C`: the activity change, negative = inhibition in test [1] was 4.55%; in test [2], -24.4%; in test [3] it was 6.81%; in test [4], -5.9%; in test [5], 1.8%.

With `Cc1cc(N2C(=O)Cn3cccc3C2C(=O)NC2CCCC2)ccc1Br` (stereo not given), the activity change, negative = inhibition in test [1] came to 7.28%; in test [2] it was 0%; in test [3], 4.93%; in test [4], 1.35%; in test [5], 1.64%.

As to `CC(C)CCn1c(=O)c2ccc(C(=O)NC(C)C)cc2n2c(=O)[nH]nc12`, the activity change, negative = inhibition was -6.93% in test [1]; 0% in test [2]; 3.71% in test [3]; -7.01% in test [4]; -2.46% in test [5].

As for `OC1C=C2C3CN(Cc4cc5c(cc43)OCO5)C2CC1O` (stereo not given), the activity change, negative = inhibition in test [1] is 4.7%; in test [2] it was 2.71%; in test [3] it was 10.5%; in test [4], -7.28%; in test [5], 3.79%.

Take `COC(=O)/C=C/C(=O)N(O)CCCCNCc1ccc(COC(=O)Nc2cccc3ccccc23)cc1`: the activity change, negative = inhibition in test [1] is -20.9%; in test [2], 6.93%; in test [3] it was -10.1%; in test [4], -8.93%; in test [5], 4.11%.

As for `COc1ccc(N2CCN(C(=O)c3cc(NC(C)=O)cc4nc(C)ccc34)CC2)cc1`, the activity change, negative = inhibition is -13% in test [1]; -6.26% in test [2]; -73.7% in test [3]; -10.9% in test [4]; -5.98% in test [5].

For the compound `CC1CCC23COC(=O)C2=CC(O)CC3C1(C)CCC1=CC(O)OC1=O` (stereo not given), the activity change, negative = inhibition in test [1] is -0.342%; in test [2] it was -3.2%; in test [3] it was -1.27%; in test [4] it was -13.7%; in test [5], 4.07%.

Consider `CC1(C(=O)NC2CCCCCCC2)Cn2c(cc3occc32)C(=O)N1CCCN1CCOCC1` (stereo not given), for which the activity change, negative = inhibition is 2.62% in test [1]; 5.29% in test [2]; 4.86% in test [3]; -1.54% in test [4]; 1.74% in test [5].

For the compound `CC(=O)N[C@H]1CN(S(=O)(=O)c2ccc(C)c(F)c2)C[C@@H]1C(C)C`, the activity change, negative = inhibition in test [1] was -1.42%; in test [2], 3.55%; in test [3], 1.66%; in test [4], 1.46%; in test [5] it was 1.93%.

Take `CCOC(=O)c1cc2n(n1)CC(C)(C(=O)NCc1ccccc1OC)N(c1ccc(C)cc1C)C2=O` (stereo not given): the activity change, negative = inhibition was found to be 1.34% in test [1]; 2.57% in test [2]; 6.29% in test [3]; 1.91% in test [4]; 1.49% in test [5].

As to `C=C(C(=O)O)C1CCC(C)C2CCC(=O)OC2(C)C1` (stereo not given), the activity change, negative = inhibition in test [1] was 2.19%; in test [2] it was 0.61%; in test [3] it was 8.84%; in test [4], -9.3%; in test [5] it was 0.179%.

Turning to `CC(C)C(C)C(O)C1CC23CC(=O)C4(O)C(=C2CCC3C1C)C=CC1(O)CC(O)CCC14C` (stereo not given), the activity change, negative = inhibition in test [1] was -0.183%; in test [2], -4.12%; in test [3], 3.69%; in test [4] it was -18.4%; in test [5], -14.6%.

For `COc1ccc(C2CCC(=O)N2Cc2ccc(F)cc2)cc1` (stereo not given), the activity change, negative = inhibition in test [1] was -4.75%; in test [2] it was -2.88%; in test [3] it was -1.31%; in test [4], -20.6%; in test [5], -7.78%.

With `COc1cc(/C=C2\CC[C@H]3COC[C@@H](c4cc(F)c(F)c(F)c4)N3C2=O)ccc1-n1cnc(C)c1`, the activity change, negative = inhibition in test [1] is 1.19%; in test [2] it was 1.11%; in test [3], 2.65%; in test [4], -15.2%; in test [5], -0.602%.

Consider `CCC(C)NC(=O)c1ccc2c(=O)n(C(C)C)c3nn(CC(=O)NC4CCCC4)c(=O)n3c2c1` (stereo not given), for which the activity change, negative = inhibition in test [1] amounted to 8.52%; in test [2], 0%; in test [3] it was 7.73%; in test [4], 1.73%; in test [5], 4.79%.

Turning to `C/C(=C\C=C\C(C)C1CCC2(C)C3CCC4C(C)(C)C(=O)CCC45CC35CCC12C)C(=O)O` (stereo not given), the activity change, negative = inhibition in test [1] was -2.15%; in test [2], -8.66%; in test [3], 5.31%; in test [4] it was -35.4%; in test [5], -10.6%.

For the compound `CC(Oc1ccc2ccccc2c1)C(=O)N(C)Cc1ccc2nsnc2c1` (stereo not given), the activity change, negative = inhibition in test [1] is -8.92%; in test [2] it was -8.16%; in test [3] it was -6.52%; in test [4], -20%; in test [5], -22.4%.

As for `Brc1c(NC2=NCCN2)ccc2nccnc12`, the activity change, negative = inhibition in test [1] was -45.2%; in test [2], 7.67%; in test [3], -0.119%; in test [4] it was -7.15%; in test [5] it was -0.821%.

Consider `CC(C)Cc1nc(CN2CCn3nc(C(O)c4ccnn4C)cc3C2)no1` (stereo not given), for which the activity change, negative = inhibition was 0.985% in test [1]; 1.26% in test [2]; 1.51% in test [3]; -1.3% in test [4]; 6.92% in test [5].

As for `CC(C)OCCCNC(=O)C1(C)Cn2c(cc3ccccc32)C(=O)N1Cc1cccc(Cl)c1` (stereo not given), the activity change, negative = inhibition in test [1] was 5.62%; in test [2], 0%; in test [3], 9.7%; in test [4] it was 6.13%; in test [5], 1.67%.

For `O=C(c1ccsc1)N1CCC2(CCCN(CC3CCC3)C2=O)C1` (stereo not given), the activity change, negative = inhibition in test [1] is -2.47%; in test [2], -6.7%; in test [3], -1.42%; in test [4] it was -7.11%; in test [5] it was -4.71%.

Turning to `CC(NC(=O)Cn1c(=O)oc2cc(S(=O)(=O)NCc3ccccc3)ccc21)c1ccccc1` (stereo not given), the activity change, negative = inhibition in test [1] was -0.217%; in test [2], 0.669%; in test [3], 5.06%; in test [4] it was 1.65%; in test [5], -1.31%.

Take `CN(C)CCOC(=O)COc1ccc(Cl)cc1`: the activity change, negative = inhibition in test [1] was 5.82%; in test [2], 15.3%; in test [3], -6.28%; in test [4], -0.571%; in test [5], 2.52%.

As for `O=C(NC1CCN(c2cc(-c3ccc(F)cc3)[nH]n2)C1)c1cc2ccccc2[nH]1` (stereo not given), the activity change, negative = inhibition is -19.8% in test [1]; -3.94% in test [2]; -2.58% in test [3]; -19.2% in test [4]; -6.84% in test [5].

As to `CC1=C[C@@H]2[C@H]3[C@@H]4O[C@@](C)(CC[C@H]4O)[C@H]3CC(=O)[C@]23C(=O)N[C@@H](CC(C)C)[C@@H]3[C@@H]1C`, the activity change, negative = inhibition is 5.43% in test [1]; 2.21% in test [2]; 8.92% in test [3]; -11.3% in test [4]; -0.727% in test [5].
